According to article PMC6128693:
No constants are given. Whether binding was seen depends on the method and setting. For part of these data: Binding seen in cells or lysates may run through a third protein. Some results given as binding are weak or reduced against the parent protein; the word gives no strength. Where a sequence is shown, tags or fusion partners need not be part of it.

Experiments:
[1] = target: T1, ENY2 (AT3G27100), yeast two-hybrid fusion (Arabidopsis thaliana) (UniProt Q6NQ54); test: two-hybrid; pairwise assays, Matchmaker (Clontech) system; bait and prey empty vectors as negative controls; 3AT chase control for DDA1-SGF11
T1 sequence: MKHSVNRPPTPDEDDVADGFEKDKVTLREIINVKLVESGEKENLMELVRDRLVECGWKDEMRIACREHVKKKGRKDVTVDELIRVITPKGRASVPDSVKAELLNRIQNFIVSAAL

[2] = target: T2, UBP22 (AT5G10790), yeast two-hybrid fusion (Arabidopsis thaliana) (UniProt Q9LEW0); test: as above
T2 sequence: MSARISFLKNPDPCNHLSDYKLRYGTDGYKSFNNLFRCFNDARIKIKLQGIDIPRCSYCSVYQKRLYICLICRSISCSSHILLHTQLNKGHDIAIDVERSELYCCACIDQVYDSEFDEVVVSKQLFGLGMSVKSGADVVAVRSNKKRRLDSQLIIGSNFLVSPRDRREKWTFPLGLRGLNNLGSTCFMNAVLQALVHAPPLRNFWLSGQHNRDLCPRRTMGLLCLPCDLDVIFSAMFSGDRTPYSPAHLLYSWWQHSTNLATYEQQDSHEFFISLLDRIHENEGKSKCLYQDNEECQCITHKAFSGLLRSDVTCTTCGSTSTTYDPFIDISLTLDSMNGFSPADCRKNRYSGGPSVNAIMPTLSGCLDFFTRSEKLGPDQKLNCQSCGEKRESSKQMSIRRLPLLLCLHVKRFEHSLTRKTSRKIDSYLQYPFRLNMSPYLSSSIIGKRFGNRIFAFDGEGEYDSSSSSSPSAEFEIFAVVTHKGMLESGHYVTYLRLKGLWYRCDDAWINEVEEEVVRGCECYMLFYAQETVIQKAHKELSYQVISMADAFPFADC

[3] = target: T3, CONSTITUTIVE PHOTOMORPHOGENIC 10 (COP10), BiFC translational fusion (Arabidopsis thaliana) (UniProt Q9LJD7); test: split reporter; BiFC in Nicotiana benthamiana leaf epidermal cells, Agrobacterium co-infiltration with p19, live confocal imaging 3 days (72 hr) after infiltration
T3 sequence: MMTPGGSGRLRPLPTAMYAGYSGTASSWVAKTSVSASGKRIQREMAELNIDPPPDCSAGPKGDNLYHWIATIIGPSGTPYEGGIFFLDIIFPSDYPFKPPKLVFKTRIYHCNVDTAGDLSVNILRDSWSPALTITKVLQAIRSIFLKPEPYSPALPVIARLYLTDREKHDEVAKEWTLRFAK

[4] = target: T4, DDB1a, BiFC translational fusion (Arabidopsis thaliana) (UniProt Q9M0V3); test: as above
T4 sequence: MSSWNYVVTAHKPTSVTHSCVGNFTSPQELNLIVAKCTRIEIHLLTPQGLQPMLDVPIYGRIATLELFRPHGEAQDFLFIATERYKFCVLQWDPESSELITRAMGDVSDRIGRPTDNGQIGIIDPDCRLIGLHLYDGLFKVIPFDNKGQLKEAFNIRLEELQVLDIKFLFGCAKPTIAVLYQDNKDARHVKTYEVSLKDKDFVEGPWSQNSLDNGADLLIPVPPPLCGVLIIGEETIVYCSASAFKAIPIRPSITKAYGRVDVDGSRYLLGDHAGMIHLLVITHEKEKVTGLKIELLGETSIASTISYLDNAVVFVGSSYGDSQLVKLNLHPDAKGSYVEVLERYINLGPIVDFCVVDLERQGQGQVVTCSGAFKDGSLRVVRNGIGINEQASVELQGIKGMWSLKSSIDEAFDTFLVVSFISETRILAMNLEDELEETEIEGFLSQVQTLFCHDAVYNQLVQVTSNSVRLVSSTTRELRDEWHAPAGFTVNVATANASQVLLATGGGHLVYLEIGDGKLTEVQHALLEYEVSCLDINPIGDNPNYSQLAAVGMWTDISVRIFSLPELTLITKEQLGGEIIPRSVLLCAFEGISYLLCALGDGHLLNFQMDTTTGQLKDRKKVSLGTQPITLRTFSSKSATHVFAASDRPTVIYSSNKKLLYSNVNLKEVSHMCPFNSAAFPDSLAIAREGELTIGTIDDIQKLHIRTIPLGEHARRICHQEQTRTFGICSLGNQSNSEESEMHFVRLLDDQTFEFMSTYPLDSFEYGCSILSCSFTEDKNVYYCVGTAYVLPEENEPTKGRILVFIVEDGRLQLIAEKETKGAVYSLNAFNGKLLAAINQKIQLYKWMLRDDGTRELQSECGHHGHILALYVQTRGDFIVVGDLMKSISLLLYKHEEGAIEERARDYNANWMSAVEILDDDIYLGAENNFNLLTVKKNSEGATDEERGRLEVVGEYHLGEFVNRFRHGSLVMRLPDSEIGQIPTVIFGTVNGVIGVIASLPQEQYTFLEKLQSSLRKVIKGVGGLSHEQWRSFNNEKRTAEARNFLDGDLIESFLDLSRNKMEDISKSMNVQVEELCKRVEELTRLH

[5] = target: T5, ENY2, BiFC translational fusion (Arabidopsis thaliana) (UniProt Q6NQ54); test: as above
T5 sequence: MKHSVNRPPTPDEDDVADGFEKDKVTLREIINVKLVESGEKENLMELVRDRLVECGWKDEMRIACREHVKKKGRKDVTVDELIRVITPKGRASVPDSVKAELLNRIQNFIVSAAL

[6] = target: T6, UBP22, BiFC translational fusion (Arabidopsis thaliana) (UniProt Q9LEW0); test: as above
T6 sequence: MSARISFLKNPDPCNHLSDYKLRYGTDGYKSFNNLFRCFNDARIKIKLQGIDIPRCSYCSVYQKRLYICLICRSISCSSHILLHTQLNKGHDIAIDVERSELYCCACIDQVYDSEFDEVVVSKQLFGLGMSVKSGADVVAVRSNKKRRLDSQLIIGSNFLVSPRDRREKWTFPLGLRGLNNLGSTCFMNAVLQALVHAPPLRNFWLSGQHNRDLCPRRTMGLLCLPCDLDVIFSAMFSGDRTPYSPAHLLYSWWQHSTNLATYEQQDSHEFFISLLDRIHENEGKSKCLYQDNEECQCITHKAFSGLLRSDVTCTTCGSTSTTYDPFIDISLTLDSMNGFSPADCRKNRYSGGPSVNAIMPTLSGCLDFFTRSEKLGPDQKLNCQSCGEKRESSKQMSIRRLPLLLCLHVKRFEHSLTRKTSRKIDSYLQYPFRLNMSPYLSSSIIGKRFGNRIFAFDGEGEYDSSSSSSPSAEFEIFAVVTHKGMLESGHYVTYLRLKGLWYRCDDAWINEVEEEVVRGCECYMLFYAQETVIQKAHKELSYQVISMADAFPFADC

B1: SGF11 (AT5G58575), yeast two-hybrid fusion (protein, UniProt Q94BV2 1-181)
chain: MSGAEDNKSSHAQLSSQIFLDLVDSVIADVASECHRVARLGLDRDLDIVEEELRLSVEARAKIADPSNNLETNTKYVVDIFGQTHPPVASEVFNCMNCGRQIVAGRFAPHLEKCMGKGRKARAKTTRSTTAAQNRNARRSPNPRYSPYPNSASENQLASGSPGVAGEDCSNFTVRENVKGD
binding [1]: binds
binding [2]: binds

B2: SGF11, BiFC translational fusion (protein, UniProt Q94BV2 1-181)
chain: MSGAEDNKSSHAQLSSQIFLDLVDSVIADVASECHRVARLGLDRDLDIVEEELRLSVEARAKIADPSNNLETNTKYVVDIFGQTHPPVASEVFNCMNCGRQIVAGRFAPHLEKCMGKGRKARAKTTRSTTAAQNRNARRSPNPRYSPYPNSASENQLASGSPGVAGEDCSNFTVRENVKGD
binding [3]: no binding
binding [4]: no binding
binding [5]: binds
binding [6]: binds
